Eight compounds from the antibiotic and cytotoxicity screens of Wong et al. (2023) can be followed below.

This is one part of the list.

In this test the test system is S. aureus RN4220. As to the kind of experiment: growth inhibition call (relative growth <= 0.2). The conditions noted are these: 50 µM.
Take `COc1ccc(S(=O)(=O)N(C)C[C@@H]2Oc3ccc(NC(=O)NC(C)C)cc3C(=O)N([C@H](C)CO)C[C@H]2C)cc1`: the growth inhibition call is “inactive”. `COc1ccc(NC(=O)Nc2ccc3c(c2)C(=O)N([C@@H](C)CO)C[C@@H](C)[C@H](CN(C)Cc2ccc(C(F)(F)F)cc2)OCCCC[C@H](C)O3)cc1`: the growth inhibition call is “inactive”. Take `COc1ccc(C(=O)NCc2ccc(OCCN(C)C)cc2)cc1OC`: the growth inhibition call was “inactive”. To `COc1ccc(NC(=O)Nc2ccc3c(c2)C(=O)N([C@H](C)CO)C[C@@H](C)[C@H](CN(C)Cc2ccc(Cl)c(Cl)c2)O3)cc1` belongs “inactive”; to `C[C@@H]1CN([C@@H](C)CO)C(=O)c2cc(NC(=O)Cn3cnnn3)ccc2O[C@H]1CN(C)Cc1ccc(C(=O)Nc2ccccc2N)cc1`, “inactive”. With `N#Cc1cccc(NCCN2CCNC2=O)n1`, the growth inhibition call was “inactive”. To `Cc1noc(C)c1NC(=O)N(C)C[C@@H]1Oc2cc(C#CCN(C)C)ccc2S(=O)(=O)N([C@@H](C)CO)C[C@H]1C` belongs “inactive”. On to `C[C@@H]1CN([C@H](C)CO)C(=O)c2cc(NS(=O)(=O)c3ccc(F)cc3)ccc2O[C@H]1CN(C)Cc1ccc(Oc2ccccc2)cc1`, for which the growth inhibition call was “inactive”.
